# From the supplement of paper PMC8728848
# This is one part of the list.
# Key:
# Test in all cases: glycan array binding signal (z-score within array); higher = stronger binding
# Conditions in all cases: glycan notation: IUPAC condensed, linker removed
# [1] = molecular target: Neu5Ac(a2-6)Gal(b1-4)GlcNAc6S
# Outline: (§1)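 The binding signal is a Z-score computed within each array and averaged over linkers. Arrays of the same protein sequence at different concentrations or buffers were also averaged together. Data originate from 3228 arrays in the Consortium for Functional Glycomics database, kept only where the protein sequence was available.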
# Neu5Ac(a2-6)GalNAc = molecular target: Neu5Ac(a2-6)GalNAc
# Outline: as §1
# [2] = molecular target: Neu5Ac(a2-6)GalNAc(b1-4)GlcNAc
# Outline: as §1
# [3] = molecular target: Neu5Ac(a2-6)GalNAc(b1-4)GlcNAc6S
# Outline: as §1
# [4] = molecular target: Neu5Ac(a2-6)GlcNAc(b1-4)GlcNAc
# Outline: as §1
# [5] = molecular target: Neu5Ac(a2-6)GlcNAc(b1-4)GlcNAc(b1-4)GlcNAc
# Outline: as §1
# Neu5Ac(a2-8)Neu5Ac = molecular target: Neu5Ac(a2-8)Neu5Ac
# Outline: as §1
# [6] = molecular target: Neu5Ac(a2-8)Neu5Ac(a2-3)Gal(b1-3)GalNAc(b1-4)[Neu5Ac(a2-3)]Gal(b1-4)Glc
# Outline: as §1
# [7] = molecular target: Neu5Ac(a2-8)Neu5Ac(a2-3)Gal(b1-3)GalNAc(b1-4)[Neu5Ac(a2-8)Neu5Ac(a2-3)]Gal(b1-4)Glc
# Outline: as §1
# [8] = molecular target: Neu5Ac(a2-8)Neu5Ac(a2-3)Gal(b1-4)Glc
# Outline: as §1
# [9] = molecular target: Neu5Ac(a2-8)Neu5Ac(a2-3)Gal(b1-4)GlcNAc
# Outline: as §1
# [10] = molecular target: Neu5Ac(a2-8)Neu5Ac(a2-3)[Gal(b1-3)GalNAc(b1-4)]Gal(b1-4)Glc
# Outline: as §1
# [11] = molecular target: Neu5Ac(a2-8)Neu5Ac(a2-3)[GalNAc(b1-4)]Gal(b1-4)Glc
# Outline: as §1
# [12] = molecular target: Neu5Ac(a2-8)Neu5Ac(a2-8)Neu5Ac
# Outline: as §1
# [13] = molecular target: Neu5Ac(a2-8)Neu5Ac(a2-8)Neu5Ac(a2-3)Gal(b1-4)Glc
# Outline: as §1
# [14] = molecular target: Neu5Ac(a2-8)Neu5Ac(a2-8)Neu5Ac(a2-3)[Gal(b1-3)GalNAc(b1-4)]Gal(b1-4)Glc
# Outline: as §1
# [15] = molecular target: Neu5Ac(a2-8)Neu5Ac(a2-8)Neu5Ac(a2-3)[GalNAc(b1-4)]Gal(b1-4)Glc
# Outline: as §1
# [16] = molecular target: Neu5Ac(a2-8)Neu5Ac(a2-8)Neu5Ac(a2-8)Neu5Ac(a2-3)[GalNAc(b1-4)]Gal(b1-4)Glc
# Outline: as §1
# [17] = molecular target: Neu5Ac(a2-8)Neu5Gc(a2-3)Gal(b1-4)GlcNAc
# Outline: as §1
# Neu5Ac(b1-6)GalNAc = molecular target: Neu5Ac(b1-6)GalNAc
# Outline: as §1
# [18] = molecular target: Neu5Ac(b2-6)Gal(b1-4)GlcNAc
# Outline: as §1
# Neu5Ac(b2-6)GalNAc = molecular target: Neu5Ac(b2-6)GalNAc
# Outline: as §1
# [19] = molecular target: Neu5Ac9Ac(a2-3)Gal(b1-3)GlcNAc
# Outline: as §1
# [20] = molecular target: Neu5Ac9Ac(a2-3)Gal(b1-4)GlcNAc
# Outline: as §1
# [21] = molecular target: Neu5Ac9Ac(a2-6)Gal(b1-4)GlcNAc
# Outline: as §1
# [22] = molecular target: Neu5Gc(a2-3)Gal(b1-3)GlcNAc
# Outline: as §1
# [23] = molecular target: Neu5Gc(a2-3)Gal(b1-3)[Fuc(a1-4)]GlcNAc
# Outline: as §1
# Neu5Gc(a2-3)Gal(b1-4)Glc = molecular target: Neu5Gc(a2-3)Gal(b1-4)Glc
# Outline: as §1
# [24] = molecular target: Neu5Gc(a2-3)Gal(b1-4)GlcNAc
# Outline: as §1
# [25] = molecular target: Neu5Gc(a2-3)Gal(b1-4)GlcNAc(b1-3)Gal(b1-4)GlcNAc(b1-2)Man(a1-3)[Neu5Gc(a2-3)Gal(b1-4)GlcNAc(b1-3)Gal(b1-4)GlcNAc(b1-2)Man(a1-6)]Man(b1-4)GlcNAc(b1-4)GlcNAc
# Outline: as §1
# [26] = molecular target: Neu5Gc(a2-3)Gal(b1-4)[Fuc(a1-3)]GlcNAc
# Outline: as §1
# [27] = molecular target: Neu5Gc(a2-3)Gal(b1-4)[Fuc(a1-4)]GlcNAc
# Outline: as §1
# [28] = molecular target: Neu5Gc(a2-6)Gal(b1-4)GlcNAc
# Outline: as §1
# Neu5Gc(a2-6)GalNAc = molecular target: Neu5Gc(a2-6)GalNAc
# Outline: as §1
# [29] = molecular target: Neu5Gc(a2-8)Neu5Ac(a2-3)Gal(b1-4)GlcNAc
# Outline: as §1
# [30] = molecular target: Neu5Gc(a2-8)Neu5Gc(a2-3)Gal(b1-4)GlcNAc
# Outline: as §1
# [31] = molecular target: Neu5Gc(a2-8)Neu5Gc(a2-3)Gal(b1-4)GlcNAc(b1-3)Gal(b1-4)GlcNAc
# Outline: as §1
# [32] = molecular target: Neu5Gc(a2-8)Neu5Gc(a2-6)Gal(b1-4)GlcNAc
# Outline: as §1
# [33] = molecular target: Neu5Gc(b2-6)Gal(b1-4)GlcNAc
# Outline: as §1
binder,measurement,setting,value
"LTL (Lotus tetragonolobus), P19664 (protein) VSFNYTEFKDDGSLILQGDAKIWTDGRLAMPTDPLVNNPKTTRSAGRALYATPVPIWDSATGNVASFVTSFNFLFVIRELKYTPTDGLVFFLAPVGTEIPSGSTGGFLGIFDGSNGFNQFVAVEFDSYHNIWDPKSLRSSHVGIDVNSIMSLKAVNWNRVSGSLEKATIIYDSQTNILSVVMTSQNGQITTIYGTIDLKTVLPEKVSVGFSATTGNPEREKHDIYSWSFTSTLKEPEEQA",glycan array binding signal (z-score),[1],-0.256
same,glycan array binding signal (z-score),Neu5Ac(a2-6)GalNAc,-0.349
same,glycan array binding signal (z-score),[2],-0.299
same,glycan array binding signal (z-score),[3],-0.327
same,glycan array binding signal (z-score),[4],-0.268
same,glycan array binding signal (z-score),[5],-0.082
same,glycan array binding signal (z-score),Neu5Ac(a2-8)Neu5Ac,-0.069
same,glycan array binding signal (z-score),[6],-0.472
same,glycan array binding signal (z-score),[7],-0.211
same,glycan array binding signal (z-score),[8],-0.262
same,glycan array binding signal (z-score),[9],-0.398
same,glycan array binding signal (z-score),[10],-0.265
same,glycan array binding signal (z-score),[11],-0.338
same,glycan array binding signal (z-score),[12],-0.193
same,glycan array binding signal (z-score),[13],-0.267
same,glycan array binding signal (z-score),[14],0.131
same,glycan array binding signal (z-score),[15],0.153
same,glycan array binding signal (z-score),[16],0.037
same,glycan array binding signal (z-score),[17],-0.455
same,glycan array binding signal (z-score),Neu5Ac(b1-6)GalNAc,-0.326
same,glycan array binding signal (z-score),[18],-0.162
same,glycan array binding signal (z-score),Neu5Ac(b2-6)GalNAc,-0.262
same,glycan array binding signal (z-score),[19],-0.279
same,glycan array binding signal (z-score),[20],0.203
same,glycan array binding signal (z-score),[21],-0.401
same,glycan array binding signal (z-score),[22],-0.203
same,glycan array binding signal (z-score),[23],-0.342
same,glycan array binding signal (z-score),Neu5Gc(a2-3)Gal(b1-4)Glc,-0.061
same,glycan array binding signal (z-score),[24],-0.225
same,glycan array binding signal (z-score),[25],-0.032
same,glycan array binding signal (z-score),[26],-0.19
same,glycan array binding signal (z-score),[27],-0.006
same,glycan array binding signal (z-score),[28],0.117
same,glycan array binding signal (z-score),Neu5Gc(a2-6)GalNAc,0.099
same,glycan array binding signal (z-score),[29],-0.207
same,glycan array binding signal (z-score),[30],-0.326
same,glycan array binding signal (z-score),[31],-0.15
same,glycan array binding signal (z-score),[32],-0.252
same,glycan array binding signal (z-score),[33],0.212
